Test results from patent US20220056119A1 (Regeneron, published 2022).
Each block holds one binder with its values, some of them ahead of it.

What was measured:
[1] = molecular target: T1, Activin A (R&D Systems, #338-AC) (human, UniProt P08476 311-426); assay: SPR blocking: 5 nM Activin A + 15 nM binder over hActRIIB-hFc (Control 4) surface
T1 construct: Bought protein; also called inhibin-βA dimer; homodimer of two βA subunits
T1 sequence: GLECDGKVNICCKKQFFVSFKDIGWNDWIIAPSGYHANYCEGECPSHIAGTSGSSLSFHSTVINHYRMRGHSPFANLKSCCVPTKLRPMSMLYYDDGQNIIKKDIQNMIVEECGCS
Experimental: (§1) The binding signal (RU) was measured at 150 seconds after the start of the injection, and this signal was subtracted by the measured RU value for a negative control reference surface to determine the specific binding signal.

[2] = molecular target: T1, Activin A (R&D Systems, #338-AC); assay: SPR blocking: 5 nM Activin A + 30 nM binder over hActRIIB-hFc (Control 4) surface
Experimental: as §1

[3] = molecular target: T1, Activin A (R&D Systems, #338-AC); assay: SPR blocking: 5 nM Activin A + 60 nM binder over hActRIIB-hFc (Control 4) surface
Experimental: as §1

[4] = molecular target: T1, Activin A (R&D Systems, #338-AC); assay: SPR blocking: 5 nM Activin A + 0.00 nM binder over hActRIIB-hFc (Control 4) surface
Experimental: as §1

[5] = molecular target: T1, Activin A (R&D Systems, #338-AC); assay: SPR blocking: 5 nM Activin A + 0.94 nM binder over hActRIIB-hFc (Control 4) surface
Experimental: as §1

[6] = molecular target: T1, Activin A (R&D Systems, #338-AC); assay: SPR blocking: 5 nM Activin A + 1.88 nM binder over hActRIIB-hFc (Control 4) surface
Experimental: as §1

[7] = molecular target: T1, Activin A (R&D Systems, #338-AC); assay: SPR blocking: 5 nM Activin A + 3.75 nM binder over hActRIIB-hFc (Control 4) surface
[8] = molecular target: T1, Activin A (R&D Systems, #338-AC); assay: SPR blocking: 5 nM Activin A + 7.50 nM binder over hActRIIB-hFc (Control 4) surface
Experimental: as §1

Activin A [9] = molecular target: T2, Activin A (human, UniProt P08476 311-426); assay: SPR, 5 nM Activin A + 15 nM binder over hActRIIA-hFc surface
T2 construct: Homodimer of two betaA subunits; bought (R&D Systems #338-AC); also called inhibin-betaA dimer
T2 sequence: T1 sequence
Experimental: as §1

Activin A [10] = molecular target: T2, Activin A; assay: SPR, 5 nM Activin A + 30 nM binder over hActRIIA-hFc surface
Experimental: as §1

Activin A [11] = molecular target: T2, Activin A; assay: SPR, 5 nM Activin A + 60 nM binder over hActRIIA-hFc surface
Experimental: as §1

Activin A [12] = molecular target: T2, Activin A; assay: SPR, 5 nM Activin A + 0.94 nM binder over hActRIIA-hFc surface
Experimental: as §1

Activin A [13] = molecular target: T2, Activin A; assay: SPR, 5 nM Activin A + 1.88 nM binder over hActRIIA-hFc surface
Experimental: as §1

Activin A [14] = molecular target: T2, Activin A; assay: SPR, 5 nM Activin A + 3.75 nM binder over hActRIIA-hFc surface
Experimental: as §1

Activin A [15] = molecular target: T2, Activin A; assay: SPR, 5 nM Activin A + 7.50 nM binder over hActRIIA-hFc surface
Experimental: as §1

Activin A [16] = molecular target: T2, Activin A; assay: SPR, 5 nM Activin A + 15 nM binder over Follistatin-288 surface
Experimental: as §1

Activin A [17] = molecular target: T2, Activin A; assay: SPR, 5 nM Activin A + 30 nM binder over Follistatin-288 surface
Experimental: as §1

Activin A [18] = molecular target: T2, Activin A; assay: SPR, 5 nM Activin A + 60 nM binder over Follistatin-288 surface
Experimental: as §1

Activin A [19] = molecular target: T2, Activin A; assay: SPR, 5 nM Activin A + 7.5 nM binder over Follistatin-288 surface
Experimental: as §1

Activin A [20] = molecular target: T2, Activin A; assay: SPR, 5 nM Activin A + 0.94 nM binder over Follistatin-288 surface
Experimental: as §1

Activin A [21] = molecular target: T2, Activin A; assay: SPR, 5 nM Activin A + 1.88 nM binder over Follistatin-288 surface
Experimental: as §1

Activin A [22] = molecular target: T2, Activin A; assay: SPR, 5 nM Activin A + 3.75 nM binder over Follistatin-288 surface
Experimental: as §1

Activin A [23] = molecular target: T2, Activin A; assay: SPR, 5 nM Activin A + 0 nM binder (no inhibitor) over Follistatin-288 surface
Experimental: as §1

Activin A [24] = molecular target: T2, Activin A; assay: SPR, 5 nM Activin A + 0.00 nM binder (no inhibitor) over hActRIIA-hFc surface
Experimental: as §1

GDF8 = GDF8 (human, UniProt O14793 267-375); assay: cell-based or functional assay
GDF11 = GDF11 (human, UniProt O95390 299-407); assay: cell-based or functional assay
Chain of GDF11 (O95390 299-407 limits assumed): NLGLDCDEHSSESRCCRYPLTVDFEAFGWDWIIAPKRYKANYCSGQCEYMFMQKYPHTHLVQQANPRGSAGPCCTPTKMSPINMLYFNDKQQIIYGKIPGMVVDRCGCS

B3: Control 4 (Activin Type IIB receptor-Fc fusion: soluble Activin RIIB extracellular domain E23-P133 of NP_001097, Gly-Ser linker, C-terminal human IgG1 Fc) (Fc fusion)
chain: EAETRECIYYNANWELERTNQSGLERCEGEQDKRLHCYASWANSSGTIELVKKGCWLDDFNCYDRQECVATEENPQVYFCCCEGNFCNERFTHLPEAGGPEVTYEPPPTAPSG[gap - human IgG1 Fc]
- IC50, blockade of 0.50 nM GDF8 in A204/CAGAx12-Luc reporter bioassay (GDF8): 298 pM
- IC50, blockade of 0.40 nM GDF11 in A204/CAGAx12-Luc reporter bioassay (GDF11): 214 pM

B4: Control 4 (Activin Type IIB receptor-Fc fusion molecule) (Fc fusion)
chain: B3 chain
notes: also called ActRIIB-hFc; hActRIIB-hFc
- % bound RU w/ no inhibitor (Activin A [9]): 51%
- % bound RU w/ no inhibitor (Activin A [10]): 2%
- % bound RU w/ no inhibitor (Activin A [11]): 1%
- % bound RU w/ no inhibitor (Activin A [12]): 276%
- % bound RU w/ no inhibitor (Activin A [13]): 266%
- % bound RU w/ no inhibitor (Activin A [14]): 231%
- % bound RU w/ no inhibitor (Activin A [15]): 160%
- % bound RU w/ no inhibitor (Activin A [16]): 43%
- % bound RU w/ no inhibitor (Activin A [17]): 1%
- % bound RU w/ no inhibitor (Activin A [18]): 1%
- % bound RU w/ no inhibitor (Activin A [19]): 120%
- % bound RU w/ no inhibitor (Activin A [20]): 169%
- % bound RU w/ no inhibitor (Activin A [21]): 163%
- % bound RU w/ no inhibitor (Activin A [22]): 151%
- % bound RU w/ no inhibitor (Activin A [23]): 100%
- % bound RU w/ no inhibitor (Activin A [24]): 100%

B5: Control 4 (Activin Type IIB receptor-Fc fusion molecule; soluble Activin RIIB receptor extracellular domain E23-P133 of NP_001097, Gly-Ser linker, C-terminal … (Fc fusion)
chain: B3 chain
notes: also called hActRIIB-hFc; hActRIIB-Fc
- % bound RU w/ no inhibitor [1]: 51%
- % bound RU w/ no inhibitor [2]: 3%
- % bound RU w/ no inhibitor [3]: 2%
- % bound RU w/ no inhibitor [4]: 100%
- % bound RU w/ no inhibitor [5]: 149%
- % bound RU w/ no inhibitor [6]: 148%
- % bound RU w/ no inhibitor [7]: 144%
- % bound RU w/ no inhibitor [8]: 130%

Continued, values first:

- % bound RU w/ no inhibitor [1]: 56%
- % bound RU w/ no inhibitor [2]: 5%
- % bound RU w/ no inhibitor [3]: 5%
- % bound RU w/ no inhibitor [4]: 100%
- % bound RU w/ no inhibitor [5]: 131%
- % bound RU w/ no inhibitor [6]: 129%
- % bound RU w/ no inhibitor [7]: 127%
- % bound RU w/ no inhibitor [8]: 113%
B1: human ActRIIA expressed with a C-terminal human Fc tag (hActRIIA-Fc; R&D Systems, #340-R[…]) (Fc fusion, not shown: a dimerising Fc or GST)
chain: not shown
notes: Bought protein; also called hActRIIA-hFc

- % bound RU w/ no inhibitor (Activin A [9]): 50%
- % bound RU w/ no inhibitor (Activin A [10]): 5%
- % bound RU w/ no inhibitor (Activin A [11]): 3%
- % bound RU w/ no inhibitor (Activin A [12]): 236%
- % bound RU w/ no inhibitor (Activin A [13]): 222%
- % bound RU w/ no inhibitor (Activin A [14]): 188%
- % bound RU w/ no inhibitor (Activin A [15]): 128%
- % bound RU w/ no inhibitor (Activin A [16]): 60%
- % bound RU w/ no inhibitor (Activin A [17]): 11%
- % bound RU w/ no inhibitor (Activin A [18]): 13%
- % bound RU w/ no inhibitor (Activin A [19]): 116%
- % bound RU w/ no inhibitor (Activin A [20]): 156%
- % bound RU w/ no inhibitor (Activin A [21]): 148%
- % bound RU w/ no inhibitor (Activin A [22]): 138%
- % bound RU w/ no inhibitor (Activin A [23]): 100%
- % bound RU w/ no inhibitor (Activin A [24]): 100%
B2: human ActRIIA expressed with a C-terminal human Fc tag (Fc fusion, not shown: a dimerising Fc or GST)
chain: not shown
notes: Bought reagent; also called hActRIIA-Fc; hActRIIA-hFc
